Experimental data as given in PubChem BioAssay AID485294 (National Center for Advancing Translational Sciences (NCATS), 2010).
In all, about 370,000 compounds went through this assay and about 150 (0.041%) were called active. Inconclusive means that the source gave no clear call. Such entries were picked first, then a sample of the others. The call rests on the fitted dose curve; in most records, active means well fitted inhibition curve with a large enough effect; inconclusive means small, poorly fitted or top-dose-only effect; inactive means flat fitted curve, though single readings scatter. No potency is given beside an inconclusive call; the fits are too rough.

Target: Beta-lactamase (Escherichia coli (strain K12)) (UniProt P00811)
Test: qHTS Inhibitors of AmpC Beta-Lactamase (assay with detergent); further: nearly all actives have a fitted effect of over 25% in size;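 on activity change, negative = inhibition: 0% = no-compound wells and -100% = no-enzyme wells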
Conditions: AmpC hydrolysis of nitrocefin, absorbance 480 nm, 0.01% Triton; activity change, negative = inhibition: at 114 µM (top of the series)
Procedure: NIH Molecular Libraries Probe Production Network [MLPCN] NIH Chemical Genomics Center [NCGC] Assay Provider: Professor Brian Shoichet, UCSF Assay Overview: This aggregation profiling approach exploits the sensitivity of aggregate formation to detergent. Inhibition of b-lactamase is measured in the presence and absence of 0.01% Triton X-100. This particular assay had the prescence of 0.01% Triton X-100. See Pubchem assay "Promiscuous and Specific Inhibitors of AmpC Beta-Lactamase (assay without detergent)" for related screen. Compounds that inhibit only in the absence of detergent are considered likely promiscuous aggregators. A screen of 1,030 compounds was performed in Brian Shoichet's lab in 96-well format. AmpC activity was measured by following the absorbance at 480 nm. Nitrocefin is a chromogenic substrate: while nitrocefin is yellow (lmax 390 nm), the product of its hydrolysis is red (lmax 486 nm, 17,000 M-1). AmpC beta lactamase was provided by Shoichet Lab, UCSF.
Buffer: 20 mM phosphate buffer, pH 7.0 Triton X-100: No Detergent screen: 0.0001%, Detergent screen: 0.01%. Reagents/Controls: Buffer in columns 3 and 4 as negative control (no enzyme). 5.3 nM AmpC in columns 1, 2, 5-48. Titration of UCSF compound 9 control (from 10 mM, then 1:2) pin-transferred to column 2. Column 1 is neutral (100% activity). Assay Steps: Six uL of reagents were dispensed to 1536-well Greiner black clear bottom plates. Compounds and controls (23 nL) were transferred via Kalypsys PinTool. The plates were incubated for 15 min at room temperature, and then 2 uL of 800 uM solution of nitrocefin was added to start the reaction. The plates were immediately transferred to and read every 20 seconds for 4 min on ViewLux (Perkin-Elmer) High-throughput CCD imager using 480 nm absorbance protocol. During dispense, reagent bottles were kept submerged into 4 deg C water bath. Keywords: NIH Roadmap, MLSCN, MLI, MLSMR, qHTS, NCGC, AmpC Beta-Lactamase, Aggregation
Potency means the concentration at half of the fitted maximal effect; tags describe the fitted curve by direction and shape.

UniProt P00811, sequence (P00811 whole entry, looked up): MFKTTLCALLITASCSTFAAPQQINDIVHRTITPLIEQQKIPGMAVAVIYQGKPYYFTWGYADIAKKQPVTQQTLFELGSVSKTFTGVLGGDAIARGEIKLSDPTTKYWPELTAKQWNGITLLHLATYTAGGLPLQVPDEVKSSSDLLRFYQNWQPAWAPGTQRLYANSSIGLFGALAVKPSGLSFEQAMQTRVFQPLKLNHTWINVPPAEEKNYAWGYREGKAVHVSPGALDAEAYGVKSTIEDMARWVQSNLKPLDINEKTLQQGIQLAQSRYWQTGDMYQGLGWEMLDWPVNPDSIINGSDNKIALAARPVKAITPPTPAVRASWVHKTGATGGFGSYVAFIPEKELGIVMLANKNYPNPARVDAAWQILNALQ

Structure (SMILES) | activity change, negative = inhibition | Potency
COc1ccc(C2N(C(=O)c3ccccc3)CCN2C(=O)c2ccccc2)cc1 | inactive: 1.66% | 
CCOc1cc(Br)cc(C(c2c(C(=O)O)[nH]c3ccccc23)c2c(C(=O)O)[nH]c3ccccc23)c1O |  | inconclusive [inhibitor, full curve, poor fit]
CCOc1ccccc1NC(=O)C1CC(=O)n2ncnc2N1 (centres undefined) |  | inconclusive [inhibitor, single point]
O=C(NNC1=NCCC1)c1ccc(Br)cc1 |  | inconclusive [inhibitor, full curve, poor fit]
Cc1ccc(C(C)C)c(OCC(=O)Nc2nc3c(s2)CCCC3)c1 | inactive: 14.7% | 
COc1ccc(C2=NOC3(CC(=O)N(c4ccc(C)cc4)C3=O)C2)cc1 (centres undefined) |  | inconclusive [inhibitor, full curve, poor fit]
Cc1ccc(-c2nnn(CC(=O)N(CC(=O)NCCC(C)C)c3ccc(F)cc3)n2)cc1 | inactive: 10.5% | 
O=C(O)c1ccc(OS(=O)(=O)c2cccc(C(F)(F)F)c2)cc1 | inactive: -4.85% | 
COc1ccc(-c2cc(C(=O)N3CCN(c4ccccc4)CC3)c3ccccc3n2)cc1 |  | inconclusive [inhibitor, full curve, poor fit]
CCc1c(O)cc(=O)n(-c2ccccc2)c1-c1ccccc1 |  | inconclusive [inhibitor, partial curve, poor fit]
CC(C)(C)c1ccc(OCCC(=O)OCC(=O)Nc2ccc(N3CCOCC3)cc2)cc1 |  | inconclusive [inhibitor, partial curve, poor fit]
Cc1noc(C)c1C(=O)OCC(=O)NC(c1ccccc1)c1ccccc1 |  | inconclusive [inhibitor, partial curve]
O=C1CCC(CCC(=O)N2CCCC(C(=O)c3cccc(C(F)(F)F)c3)C2)=NN1 (centres undefined) | inactive: 3.31% | 
CCOc1ccccc1NC(=O)N1CCN(S(C)(=O)=O)CC1 | inactive: 8.01% | 
Cc1ccc(C(=O)COC(=O)c2c(C)cc(=O)oc2C)cc1[N+](=O)[O-] | inactive: -1.76% | 
CC(C)n1cnnc1SCC(=O)NC(=O)c1ccccc1 |  | inconclusive [inhibitor, full curve, poor fit]
Cc1ccc(NS(=O)(=O)N2CCOCC2)c(C)c1 |  | inconclusive [inhibitor, full curve, poor fit]
COc1cccc(CN2C(=O)C3(SCC(=O)N3c3cc(C)cc(C)c3)c3ccccc32)c1 (centres undefined) | inactive: 3.68% | 
Cc1cccc(NC(=O)Cn2nnc3sc4c(c3c2=O)CC(C)(C)OC4)c1 | inactive: -1.4% | 
COc1cc(C)ccc1OCCOCCN(C)Cc1ccccc1 | inactive: -10.7% | 
COc1ccc(C2C(C(=O)N3CCCCC3)CC(=O)N2c2ccc(OC)cc2)cc1 (centres undefined) | inactive: -9.23% | 
COc1ccc(OCc2cc(C(=O)NC3CCc4ccccc43)no2)c(Cl)c1 (centres undefined) | inactive: -6.22% | 
CCNc1nc(NCC)nc(Nn2cnnc2)n1 |  | inconclusive [inhibitor, partial curve, poor fit]

Structure (SMILES) | activity change, negative = inhibition | Potency
C/C(CC(C)(C)c1ccccc1)=N\NS(=O)(=O)c1ccccc1 | inactive: -8.09% | 
COc1ccccc1C(=O)NCCN1CCN(c2ccccc2)CC1 |  | inconclusive [inhibitor, full curve, poor fit]
O=C(COc1coc(CN2CCc3ccccc3C2)cc1=O)Nc1cccc([N+](=O)[O-])c1 | inactive: -20.5% | 
CC1CN(C(=O)CCC(=O)NCc2cccs2)c2cc(Cl)ccc2O1 (centres undefined) | inactive: 6.9% | 
COc1cc(OC)cc(C(=O)Nc2nnc(SCC(=O)NCc3ccco3)s2)c1 | inactive: 6.35% | 
COc1ccccc1Oc1nc2c(C)cccn2c(=O)c1/C=C(\C#N)c1nc2ccccc2[nH]1 | inactive: 23.2% | 
CC(C)c1ccc(NC(=S)NCc2cccs2)cc1 |  | inconclusive [inhibitor, full curve, poor fit]
CCCc1cc(=O)n2nc(N3CCC(C(=O)N4CCN(c5cccc(OC)c5)CC4)CC3)sc2n1 | inactive: 1.38% | 
COc1ccc(OCC(O)CN2C(=O)c3ccccc3S2(=O)=O)cc1 (centres undefined) |  | inconclusive [inhibitor, full curve, poor fit]
O=S(=O)(NCc1ccccc1Cl)c1cccs1 |  | inconclusive [inhibitor, partial curve]
O=C(CSc1nnc(-c2cccs2)o1)NCc1ccco1 |  | inconclusive [inhibitor, full curve, poor fit]
O=C(Nc1ccccc1)c1ccncc1 | inactive: -1.15% | 
CCC[C@@H]1C[C@@H](C(=O)N[C@H]([C@@H](C)O)[C@H]2O[C@H](SC)[C@H](O)[C@@H](O)C2O)N(C)C1 (some centres undefined) |  | inconclusive [inhibitor, single point]
COC(=O)C(C)NC(=O)c1ccc(C(C)(C)C)cc1 (centres undefined) | inactive: -0.783% | 
CCCCCCCC(=O)NNC(=O)c1c(O)c2ccccc2n(CCC)c1=O |  | inconclusive [inhibitor, partial curve, poor fit]
COc1ccc(NCc2nnc(SCC(=O)NCc3ccccc3)n2-c2ccccc2OC)cc1 | inactive: -0.364% | 
O=C(COc1ccc2ccc(=O)oc2c1)N1C[C@H]2C[C@@H](C1)c1cccc(=O)n1C2 |  | inconclusive [inhibitor, full curve, poor fit]
CCC(=O)Nc1cccc(-n2nnnc2SCC(=O)c2ccc(C)c(C)c2)c1 |  | inconclusive [inhibitor, full curve, poor fit]
CNC(=O)CN(c1ccc(C(C)C)cc1)S(C)(=O)=O |  | inconclusive [inhibitor, partial curve, poor fit]
Cc1ccc(NP(=O)(c2ccccc2)c2nc3ccccc3s2)cc1 (centres undefined) | inactive: 5% | 
CCN(CC(=O)Nc1ccc2c(c1)OCCO2)S(=O)(=O)c1ccc(F)cc1 |  | inconclusive [inhibitor, partial curve, poor fit]
O=C(Nc1cccnc1)c1cnn2cccnc12 |  | inconclusive [inhibitor, full curve]
Cc1cc(C)c(S(=O)(=O)NCC(c2ccc(N(C)C)cc2)N2CCc3ccccc32)c(C)c1 (centres undefined) |  | inconclusive [inhibitor, partial curve, poor fit]

Structure (SMILES) | activity change, negative = inhibition | Potency
CC(Oc1ccc(S(=O)(=O)N2CCCC2)cc1[N+](=O)[O-])C(=O)NC1(C#N)CCCCC1 (centres undefined) |  | inconclusive [inhibitor, single point]
O=C(NC1CCCC1)c1cc(Cl)ccc1[N+](=O)[O-] |  | inconclusive [inhibitor, partial curve, poor fit]
CC(C)COc1ccc(S(=O)(=O)NNC(=O)c2cc3ccccc3o2)cc1 |  | inconclusive [inhibitor, partial curve, poor fit]
CN(C/C=C/c1ccccc1)C1CCCCC1 |  | inconclusive [inhibitor, full curve]
O=C(CP(=O)(c1ccccc1)c1ccccc1)Nc1nc2ccccc2s1 | inactive: -2.75% | 
O=C(c1ccc(F)cc1)N1CCN2C(=O)c3ccccc3C12c1ccccc1 (centres undefined) | inactive: -2.38% | 
Cc1ccc(-c2cc(C(=O)N3CCCC(C(F)(F)F)C3)c3ccccc3n2)o1 (centres undefined) | inactive: -18% | 
Cc1cc(=O)oc2cc(NC(=O)CN3C(=O)NC(C)(c4ccccc4)C3=O)ccc12 (centres undefined) |  | inconclusive [inhibitor, full curve, poor fit]
O=C(O)C1C2C=CC(C2)C1C(=O)NCc1cccc(Cl)c1 (centres undefined) |  | inconclusive [inhibitor, full curve, poor fit]
CCCN(C(=O)Cn1c(=O)oc2cc(Cl)ccc21)c1ccc(C(C)C)cc1 |  | inconclusive [inhibitor, full curve, poor fit]
Cc1ccc(C(=O)Nc2ccc3c(c2)OCO3)cc1S(=O)(=O)N1CCCCC1 |  | inconclusive [inhibitor, full curve, poor fit]
C#CC(C)(CC)NC(=O)Cn1nnc(-c2ccc(S(C)(=O)=O)cc2)n1 (centres undefined) |  | inconclusive [inhibitor, single point]
CC1=C(C(=O)OCc2ccccc2)C(c2ccc(Cl)cc2)NC(=O)N1CCCC(=O)O (centres undefined) |  | inconclusive [inhibitor, full curve, poor fit]
CN(CC(=O)Nc1cccc(F)c1)C(=O)c1ccc2c(=O)n3c(nc2c1)CCC3 |  | inconclusive [inhibitor, full curve, poor fit]
CCOC(=O)C1CCCN(C(=O)c2ccc3c(c2)N(Cc2cccc(Cl)c2)C(=O)c2ccccc2S3(=O)=O)C1 (centres undefined) | inactive: 0.297% | 
O=C(Nc1nc2ccc(Cl)cc2s1)c1ccc(S(=O)(=O)N2CCCC2)cc1 | inactive: -2.11% | 
CC(NC(=O)C(=O)NCCC1=CCCCC1)c1ccccc1 (centres undefined) |  | inconclusive [inhibitor, full curve, poor fit]
COc1cccc(CNc2nc3ccccc3n2C(C)C)c1O |  | inconclusive [inhibitor, full curve, poor fit]
CCOc1ccc(CN2CCN(CC(O)Cn3c4ccccc4c4ccccc43)CC2)cc1 (centres undefined) |  | inconclusive [inhibitor, partial curve, poor fit]
CCOCC(=O)Nc1cc(C)on1 |  | inconclusive [inhibitor, single point]
COc1ccc(OC)c(-c2csc(NC(=O)Cc3ccccc3F)n2)c1 |  | inconclusive [inhibitor, full curve, poor fit]
CCOc1ccc(CN2CCNC(=O)C2CC(=O)NCc2cc(C)n(C)n2)cc1 (centres undefined) |  | inconclusive [inhibitor, single point]
C#CCOCCOCCOCCNc1nc(N2CCN(C(=O)[C@H]([C@@H](C)O)n3cc(CCCCN)nn3)CC2)nc(N2CCN(C(=O)[C@H](Cc3ccc(O)cc3)n3cc(CCO)nn3)CC2)n1 |  | inconclusive [inhibitor, full curve, poor fit]
